Source: the supplement of paper PMC5919970
Structures can show the parent of a compound that is named as a salt. Over roughly 2,000 compounds, “fractional viability relative to vehicle” has its median near 0.92; the lowest 2% begin near 0.11. Some of the results follow.

Test system: TYKNU
Assay: fractional viability relative to vehicle; TYKNU is a high-grade serous ovarian cancer line; higher = less growth inhibition
Conditions: 72 h, genotype: OPA1 knockout (sgOPA1 #2)
In short: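 Drug treatment lasted 72 h, with cells grown at 37 °C in 5% CO2 in RPMI 1640 supplemented with 10% FBS. Beforehand, TYKNU control cells or their lentiCRISPRv2 knockout derivatives had been seeded at 500 cells per well into drug-stamped 384-well plates carrying a ~2100-compound library at 2 or 10 μM, in duplicate. Viability came from Cell Titer Glo luminescence, with averaged duplicate treatment wells normalised to duplicate control wells in the same plate position.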

Structure (SMILES)	fractional viability (2uM)	fractional viability (10uM)
COc1ccccc1S(=O)(=O)Nc1ccc2c(c1)CN(C)C(=O)N2	1.09	0.829
CCC(=O)c1c(O)cc(O)cc1O [Flopropione]	0.909	0.914
C=CC(=O)Nc1ccc2ncnc(Nc3cccc(Br)c3)c2c1	0.982	0.588
CC1Cc2ccccc2N1NC(=O)c1ccc(Cl)c(S(N)(=O)=O)c1 (stereo unspecified) [Indapamide]	1.06	0.876
O=C(/C=C\n1cnc(-c2cc(C(F)(F)F)cc(C(F)(F)F)c2)n1)NNc1ccccn1 [Verdinexor (KPT-335)]	0.256	0.231
CCOCC(O)COc1ccc(NC(=O)CC[S+](C)C)cc1 (stereo unspecified) [Suplatast Tosylate]	1.02	1.07
CN1CCN(CCOc2cc(OC3CCOCC3)c3c(Nc4c(Cl)ccc5c4OCO5)ncnc3c2)CC1 [Saracatinib (AZD0530)]	1.05	1.03
CNc1cccc(CCOc2ccc3c(c2)CN(CC(F)(F)F)C(=O)[C@H](CC(=O)O)C3)n1	0.781	0.671
CCCCCCCCCCCCCCCC(=O)O[C@@H]1[C@@H](O)[C@@H](O)[C@@H]([C@H](NC(=O)[C@@H]2C[C@@H](CCC)CN2C)[C@H](C)Cl)O[C@@H]1SC [Clindamycin palmitate HCl]	0.713	0.932
CC(=O)Nc1ncc([N+](=O)[O-])s1 [Nithiamide]	1.55	1.18
CC[C@H]1OC(=O)[C@H](C)[C@@H](O[C@H]2C[C@@](C)(OC)[C@@H](O)[C@H](C)O2)[C@H](C)[C@@H](O[C@@H]2O[C@H](C)C[C@H](N(C)C)[C@H]2O)[C@](C)(O)C[C@@H](C)[C@@H]2N[C@@H](COCCOC)O[C@H]([C@H]2C)[C@]1(C)O [Dirithromycin]	0.946	0.856
O=C1CC2(CCCC2)CC(=O)N1CCCCN1CCN(c2ncccn2)CC1 [Buspirone HCl]	1.07	0.915
O=C(NOC[C@H](O)CO)c1ccc(F)c(F)c1Nc1ccc(I)cc1F	0.528	0.453
CC(C)c1cc(-c2ccc(F)c3ccccc23)nc(N)n1	1.05	0.905
Cc1cc(C)c(/C=C2\C(=O)Nc3ccccc32)[nH]1 [Semaxanib (SU5416)]	0.956	0.988
COc1ccc(S(=O)(=O)N(C(C)=O)c2ccccc2/C=C/c2cc[n+]([O-])cc2)cc1	0.382	0.396
Cc1c(F)cc(C(=O)NC2CC2)cc1-c1ccc(C(=O)NCC(C)(C)C)cn1	0.986	0.973
CC(C)(C)c1ccc(-c2nc3ccccc3[nH]2)cc1	0.538	0.175
O=C(/C=C/c1ccc(CN(CCO)CCc2c[nH]c3ccccc23)cc1)NO [LAQ824 (Dacinostat)]	0.228	0.25
Cc1nc(-c2cn3c(n2)-c2ccc(-c4cnn(C(C)(C)C(N)=O)c4)cc2OCC3)n(C(C)C)n1	0.978	0.936
O=c1cc[nH]c(=S)[nH]1 [2-Thiouracil]	0.927	1.05
C[C@@H](N)[C@H]1CC[C@H](C(=O)Nc2ccncc2)CC1	1.32	1.21

Structure (SMILES)	fractional viability (2uM)	fractional viability (10uM)
O=c1cc(-c2ccc(O)cc2)oc2cc(O)cc(O)c12 [Apigenin]	0.916	1.23
CO[C@H]1/C=C/O[C@@]2(C)Oc3c(C)c(O)c4c(c3C2=O)C2=NC3(CCN(CC(C)C)CC3)NC2=C(NC(=O)/C(C)=C\C=C\[C@H](C)[C@H](O)[C@@H](C)[C@@H](O)[C@@H](C)[C@H](OC(C)=O)[C@@H]1C)C4=O [Rifabutin]	1.12	0.817
CNc1nc(Nc2cnn([C@H]3CCN(C4COC4)C[C@@H]3F)c2Cl)ncc1C(F)(F)F	0.853	0.616
Clc1ccc(C(Cn2ccnc2)OCc2c(Cl)cccc2Cl)c(Cl)c1 (stereo unspecified) [Isoconazole nitrate]	1.12	0.78
CC(C)n1nc(-c2cc3cc(O)ccc3[nH]2)c2c(N)ncnc21	0.678	0.337
NC(=O)N1c2ccccc2C=Cc2ccccc21 [Carbamazepine]	1.17	1.04
O=c1ncccn1[C@@H]1O[C@H](CO)[C@@H](O)[C@H]1O [Zebularine]	0.877	0.914
O=C(CCCCCCNC(=O)c1cnc(N(c2ccccc2)c2ccccc2)nc1)NO [Rocilinostat (ACY-1215)]	0.704	0.49
NC(CO)(CO)CO [Trometamol]	0.883	0.842
O=C(NCCS(=O)(=O)c1ccc(C(F)(F)F)cn1)c1ccc(Cl)cc1	0.952	0.811
CC(C)CC(=O)Nc1n[nH]c2c1CN(C(=O)C1CCN(C)CC1)C2(C)C	0.53	0.535
O=c1[nH]c(=O)n(C2CC(O)C(CO)O2)cc1Br (stereo unspecified) [Bromodeoxyuridine (BrdU)]	0.633	0.679
Nc1nc(F)nc2c1ncn2[C@@H]1O[C@H](CO)[C@@H](O)[C@@H]1O [Fludarabine]	0.555	0.277
CC(=O)N1c2ccc(-c3ccc(C(=O)O)cc3)cc2[C@H](Nc2ccc(Cl)cc2)C[C@@H]1C	0.529	0.337
CC[C@H]1OC(=O)[C@H](C)[C@@H](O[C@H]2C[C@@](C)(OC)[C@@H](O)[C@H](C)O2)[C@H](C)[C@@H](O[C@@H]2O[C@H](C)C[C@H](N(C)C)[C@H]2O)[C@](C)(O)C[C@@H](C)/C(=N\OCOCCOC)[C@H](C)[C@@H](O)[C@]1(C)O [Roxithromycin]	1.09	0.969
O=C1CN2Cc3c(ccc(Cl)c3Cl)N=C2N1 [Anagrelide HCl]	1.04	0.917
CN(C)Cc1c(C(=O)NCCOc2ccc(C(=O)NO)cc2)oc2ccccc12	0.425	0.261
CN1CC[C@H](c2c(O)cc(O)c3c(=O)cc(-c4ccccc4Cl)oc23)[C@H](O)C1 [Flavopiridol (Alvocidib)]	0.602	0.742
CN1CC[C@H](c2c(O)cc(O)c3c(=O)cc(-c4ccccc4Cl)oc23)[C@H](O)C1 [Flavopiridol HCl]	0.538	0.814
COc1ccc(-c2cc(=O)c3c(O)cc(O)cc3o2)cc1O [Diosmetin]	1.45	1.45
Nc1nc(Cl)nc2c1ncn2[C@@H]1O[C@H](CO)[C@@H](O)[C@@H]1F [Clofarabine]	0.694	0.562
